# Results published in the BET-seq Pho4 binding data (Le et al. 2018).
# The other results are listed elsewhere or left out. These are noisy estimates, calculated here from bound and input reads.
# Biological target: T1, Pho4 (S. cerevisiae) (UniProt P07270)
# T1 sequence: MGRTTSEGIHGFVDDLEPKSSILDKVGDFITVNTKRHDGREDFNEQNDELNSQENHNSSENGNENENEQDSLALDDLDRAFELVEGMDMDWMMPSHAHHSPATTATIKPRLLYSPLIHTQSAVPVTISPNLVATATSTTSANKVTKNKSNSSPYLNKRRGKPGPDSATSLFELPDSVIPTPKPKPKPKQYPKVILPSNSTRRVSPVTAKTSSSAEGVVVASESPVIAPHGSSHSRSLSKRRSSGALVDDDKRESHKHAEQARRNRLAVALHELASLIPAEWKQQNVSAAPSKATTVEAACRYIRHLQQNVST
# Experiment: relative binding free energy (BET-seq); higher = weaker binding
# Settings: reference: library average
row,Sequence,relative binding free energy [kcal/mol]
1,GGTGTCACGTGGACGT,0.12
2,GGGGTCACGTGCGGTT,0.16
3,GCTGGCACGTGTTGCG,-0.08
4,GATATCACGTGTGAGG,0.21
5,GTAGTCACGTGTTTTG,0.17
6,TAGTACACGTGGTGGA,-0.02
7,TGAAGCACGTGCGTTT,-0.09
8,GGATACACGTGTAAGG,0.12
9,GATTTCACGTGGGTTT,0.36
10,GGGTGCACGTGTAGGT,0.09
11,TGGTACACGTGACTTT,0.28
12,AGGAACACGTGGGAGG,-0.11
13,GTTGTCACGTGAATAT,0.37
14,TTAGTCACGTGGGTTT,0.07
15,AGGCGCACGTGCTGGA,-0.11
16,ATGCGCACGTGAAGGT,0.04
17,TGTGTCACGTGATCTA,0.12
18,TTGGACACGTGTTGGC,0.21
19,TATGGCACGTGGTTCG,-0.13
20,AAGAGCACGTGTAATG,-0.01
21,GATTTCACGTGGCTTT,0.12
22,TGGGGCACGTGAAGAT,0.19
23,GAGTACACGTGATTGG,0.06
24,CTGGTCACGTGGGGTG,-0.05
25,GGTTACACGTGAGGGT,0.4
26,GTTATCACGTGTCGCG,0.32

row,Sequence,relative binding free energy [kcal/mol]
1,GTCGGCACGTGGTGGG,-0.09
2,CGATGCACGTGTAGGG,0
3,TTAAGCACGTGCGTAG,-0.03
4,TTTGTCACGTGTTACG,0.05
5,TGGTGCACGTGGGGGC,-0.14
6,TGTTGCACGTGAGGAC,0.14
7,ACTTGCACGTGTGGAG,0.04
8,GTGTGCACGTGGGAGG,-0.08
9,TAAATCACGTGAGTTA,0.31
10,TGGGGCACGTGGGTTC,-0.23
11,CAGTGCACGTGGTGTC,-0.12
12,ATTGTCACGTGATTCT,0.05
13,CTTATCACGTGTGGGC,0.14
14,TGGTGCACGTGGAACG,0.01
15,TTAGCCACGTGTTGAT,-0.13
16,TGTCGCACGTGTAAGT,0.16
17,AGGTACACGTGGGTAA,-0.13
18,AGGGACACGTGCGGGC,0.05
19,ATTGGCACGTGGAAAG,-0.12
20,TTTAGCACGTGGGAAT,0
21,GAATGCACGTGTAGTT,0.09
22,AATATCACGTGTGTAT,0.07
23,TAGGTCACGTGAGGTC,0.27
24,TTTATCACGTGAAGGG,0.41
25,TTGTTCACGTGAAGCG,0.28
26,GATTTCACGTGCGTTT,0.32

row,Sequence,relative binding free energy [kcal/mol]
1,TTTACCACGTGGGAGG,-0.08
2,ACGGTCACGTGTGCTG,0.07
3,AGTGACACGTGGGCGT,-0.12
4,GTTGTCACGTGAATTT,0.31
5,TTGCGCACGTGGTCAT,-0.21
6,AGTAACACGTGTTGGG,0.12
7,GGAGTCACGTGATTGT,0.3
8,GGCAGCACGTGCGGTT,-0.1
9,AGGGTCACGTGATGAA,0.34
10,AAGAACACGTGTGTTG,-0.05
11,TAGATCACGTGAATAG,0.31
12,ATTTTCACGTGTGGAG,0.23
13,TGCAGCACGTGGGTAA,-0.15
14,AGCTGCACGTGTGATG,0.1
15,CTGTTCACGTGGGTGA,0.15
16,TGGGTCACGTGAAAAG,0.4
17,TTTATCACGTGGGGGC,0.06
18,GTAGTCACGTGGGCCG,0.07
19,GGAAACACGTGTGTTA,-0.11
20,TCGCGCACGTGTTGGT,-0.02
21,ATTGCCACGTGAAGGG,0.07
22,ACGTGCACGTGGGATT,-0.18
23,GTTGACACGTGGTATA,-0.06
24,GTTTGCACGTGCTCGT,-0.01
25,TTATTCACGTGGGAAA,0.21
26,TTTAGCACGTGGGTTG,-0.2

row,Sequence,relative binding free energy [kcal/mol]
1,GATTGCACGTGTAGCG,0.12
2,TTCGGCACGTGTTTAT,0
3,CGAGTCACGTGGGAGT,0.07
4,GGTGGCACGTGGGTAT,-0.15
5,CGTAACACGTGAGCGT,0.29
6,GTCGGCACGTGGGTAC,-0.15
7,GGGGCCACGTGGGGGT,-0.09
8,CGGTGCACGTGCAGGG,-0.11
9,TAAAACACGTGGGTGT,-0.12
10,TCGTTCACGTGCTTTT,0.27
11,GTTATCACGTGGAATT,0.1
12,TTTTGCACGTGGGTGT,-0.1
13,AACAGCACGTGGGGGT,-0.25
14,GTCTTCACGTGAAGTG,0.37
15,GAAGGCACGTGAGGGG,0.18
16,GGCGGCACGTGTGTTA,-0.1
17,GTTCGCACGTGGTGGG,-0.06
18,GTGAGCACGTGGGATT,-0.12
19,CGTTACACGTGGGCTT,0.06
20,GGGTACACGTGAATGT,0.38
21,TCGTGCACGTGGTACG,-0.18
22,GGGTACACGTGTTTGG,0.09
23,TGTGTCACGTGCTTTG,0.03
24,TTTGTCACGTGTGCAA,0.1
25,TTCGTCACGTGGGATG,0.03
26,AGACGCACGTGAGGTG,0.17

row,Sequence,relative binding free energy [kcal/mol]
1,ATCGTCACGTGCGGTA,0.1
2,TTCTTCACGTGAGTAA,0.33
3,ATCTTCACGTGGAGGG,0.14
4,ATGGGCACGTGTGGCT,0.01
5,TTAGACACGTGTGCGT,0.02
6,GGTGCCACGTGGTAGT,0.02
7,AGGTTCACGTGGGCTA,0.14
8,CTAAGCACGTGGGGTG,-0.29
9,TTTCGCACGTGATGGG,0.07
10,TGATCCACGTGTTATA,0.08
11,TTGCTCACGTGTTGCG,0.23
12,GGGCTCACGTGTCTGG,0.35
13,CCAGGCACGTGGTGGT,-0.28
14,GCTGTCACGTGTAGTT,0.08
15,GGGAGCACGTGAGGTT,0.23
16,AACGTCACGTGGGGTG,-0.09
17,TTGGGCACGTGAGTAT,0.15
18,TTAAGCACGTGTTAAA,0.04
19,TTTTGCACGTGTTGCG,0.15
20,TTTGGCACGTGGTGCT,-0.26
21,TTTTTCACGTGTTCTA,0.3
22,GAGTTCACGTGACGTT,0.42
23,TTTATCACGTGCGGTA,0.14
24,TCTAGCACGTGGGAAT,0.03
25,TGTGTCACGTGGATAT,0.12
26,TCTATCACGTGAGAGT,0.3

row,Sequence,relative binding free energy [kcal/mol]
1,GTAGGCACGTGAAATG,0.21
2,TCTGTCACGTGGGGGT,0.06
3,TTCGGCACGTGTGGTT,0
4,GTTTCCACGTGGGGTT,-0.01
5,GGTGGCACGTGGTTTT,0.02
6,TGTAACACGTGGTGTA,-0.08
7,CGGGGCACGTGTGTTG,-0.07
8,GTGGGCACGTGTATTC,0.16
9,TTCGACACGTGGGGCT,-0.1
10,CTGGTCACGTGGGTCA,0.03
11,GGGTCCACGTGAGGGT,0.23
12,GTCTGCACGTGATGTG,0.1
13,AGAGTCACGTGCTAGT,0.06
14,TTGGTCACGTGTCTTG,0.19
15,GGTTGCACGTGTGGAA,0.16
16,ATGTACACGTGCGATT,0.2
17,GGTCCCACGTGTTGGG,-0.03
18,AGTATCACGTGGGCTT,-0.11
19,GAGGACACGTGGGATT,-0.1
20,GTGTACACGTGGTAGG,-0.05
21,AAAGGCACGTGTAGTA,0.02
22,TAGTACACGTGTCGTG,0.03
23,AGTGCCACGTGAGAGG,0.02
24,CTTGTCACGTGTTATA,0
25,TGTATCACGTGCATGA,0.14
26,AGGGTCACGTGGCTAA,-0.04

row,Sequence,relative binding free energy [kcal/mol]
1,TGGGACACGTGAAATG,0.15
2,CTTGGCACGTGGCTGT,-0.17
3,GTGGGCACGTGAGAGA,0.15
4,TATTTCACGTGGCTTT,0.15
5,GGAAGCACGTGGTTAG,-0.18
6,TGTAGCACGTGTTCGA,-0.21
7,AAACGCACGTGTGGGT,-0.08
8,GGAGTCACGTGTTTAA,0.26
9,TATTGCACGTGCGATT,-0.1
10,TTTTACACGTGTTCGT,0.2
11,TTGAACACGTGTCGGG,0.07
12,TGTTACACGTGAAGGC,0.37
13,TGTAACACGTGATTGA,-0.01
14,TTATCCACGTGAGTGG,0.12
15,TTATGCACGTGCTTTG,-0.06
16,CGTAACACGTGGTGAG,-0.08
17,TGGATCACGTGGTCAG,0.04
18,GGTATCACGTGTGCGT,0.22
19,TGGTGCACGTGCGCGA,-0.21
20,TTGAACACGTGTGTTT,0.02
21,AGTGTCACGTGGTACA,-0.02
22,CGTGACACGTGGGTAT,-0.09
23,AAGGACACGTGGGGTT,-0.15
24,TGGGTCACGTGTCAAT,0.05
25,TGATTCACGTGTAATA,0.22
26,TGGCGCACGTGGTTCG,-0.09

row,Sequence,relative binding free energy [kcal/mol]
1,ATAGTCACGTGTCGGT,0.13
2,AAAGGCACGTGTTCGT,-0.23
3,TAGGTCACGTGCGTGC,-0.04
4,ATTTTCACGTGTATTT,0.08
5,TATGGCACGTGATCGT,-0.07
6,GGGGACACGTGCATTT,0.26
7,ATTTTCACGTGCTATA,0.21
8,TAAGGCACGTGAGGGG,0.07
9,GATTTCACGTGTTAAG,0.34
10,GGCCTCACGTGGTGGA,0.14
11,TGTTACACGTGCAATA,0.22
12,TCTGGCACGTGTGCGT,-0.08
13,GACTACACGTGGAGGT,0.27
14,TTGTGCACGTGAGTCT,0.09
15,GTAGTCACGTGAGCGT,0.28
16,TTTATCACGTGGTGGA,0.26
17,TGGTTCACGTGGGAGA,0.3
18,TCAGGCACGTGTTGGT,-0.02
19,TATTTCACGTGGGAGT,0.33
20,GGGGTCACGTGGTAGT,0.24
21,AGTTGCACGTGGAAGT,0.05
22,GAGTACACGTGGATGA,0.18
23,GTTTTCACGTGTGGGC,0.34
24,ATGTGCACGTGTGAAT,0.07
25,CTGTTCACGTGATGTA,0.34
26,TAAATCACGTGGGCTT,-0.02

row,Sequence,relative binding free energy [kcal/mol]
1,AAAATCACGTGTGTGG,0.18
2,TTGAACACGTGAAGAT,0.26
3,TTCTTCACGTGATGTT,0.34
4,GTTGTCACGTGGCGCT,0.02
5,CTGGTCACGTGGGCAT,-0.18
6,AATTTCACGTGGGATT,0.16
7,TTGGGCACGTGGTGTG,-0.12
8,GTAGTCACGTGGTCCG,0.05
9,TTTGCCACGTGTAGTT,0.03
10,GTTTGCACGTGCAGGA,0.06
11,TGCTCCACGTGGAGGG,0.05
12,TAAGTCACGTGGCCGT,-0.01
13,TTGAACACGTGTAGCT,0.01
14,GTTCACACGTGGTGAG,-0.03
15,GTATCCACGTGATGTG,0.23
16,TGTGCCACGTGATATT,0
17,AGTTACACGTGATTGC,0.25
18,TAGTACACGTGTTAAT,-0.01
19,TACTGCACGTGTGCGG,-0.01
20,TTTTACACGTGGGTAC,-0.02
21,TTATGCACGTGGTATC,-0.1
22,TTGTGCACGTGTATAT,0.15
